Viability of KB3-1 and Nalm-6 cells after 48 h of drug alone (CellTiter-Glo), 11 doses over about 4.5 log units. % of DMSO wells, lower = more cell loss; AC50 from the fitted curve, lower = more potent. No active / inactive call. Nalm-6 was screened in two runs. AC50 is listed only for well-fitted inhibitory curves. KB3-1 is a HeLa-derived carcinoma line, Nalm-6 a B-cell precursor leukaemia line.
Assays:
Nalm-6 = experiment: viability (% of DMSO control); higher = more viable cells
Method: (§1)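 Eleven-dose screen of the NCATS MIPE 3 library on cells without co-treatment; CellTiter-Glo after 48 h, as % of DMSO wells.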

KB3-1 = experiment: as above
Method: as §1

Compound	viability (Nalm-6; run: 1, 0.00078 µM) [%]	viability (Nalm-6; run: 1, 0.00234 µM) [%]	viability (Nalm-6; run: 1, 0.00702 µM) [%]	viability (Nalm-6; run: 1, 0.0211 µM) [%]	viability (Nalm-6; run: 1, 0.0632 µM) [%]	viability (Nalm-6; run: 1, 0.19 µM) [%]	viability (Nalm-6; run: 1, 0.569 µM) [%]	viability (Nalm-6; run: 1, 1.71 µM) [%]	viability (Nalm-6; run: 1, 5.12 µM) [%]	viability (Nalm-6; run: 1, 15.4 µM) [%]	viability (Nalm-6; run: 1, 46.1 µM) [%]	viability (Nalm-6; run: 2, 0.00078 µM) [%]	viability (Nalm-6; run: 2, 0.00234 µM) [%]	viability (Nalm-6; run: 2, 0.00702 µM) [%]	viability (Nalm-6; run: 2, 0.0211 µM) [%]	viability (Nalm-6; run: 2, 0.0632 µM) [%]	viability (Nalm-6; run: 2, 0.19 µM) [%]	viability (Nalm-6; run: 2, 0.569 µM) [%]	viability (Nalm-6; run: 2, 1.71 µM) [%]	viability (Nalm-6; run: 2, 5.12 µM) [%]	viability (Nalm-6; run: 2, 15.4 µM) [%]	viability (Nalm-6; run: 2, 46.1 µM) [%]	viability (KB3-1; 0.00078 µM) [%]	viability (KB3-1; 0.00234 µM) [%]	viability (KB3-1; 0.00702 µM) [%]	viability (KB3-1; 0.0211 µM) [%]	viability (KB3-1; 0.0632 µM) [%]	viability (KB3-1; 0.19 µM) [%]	viability (KB3-1; 0.569 µM) [%]	viability (KB3-1; 1.71 µM) [%]	viability (KB3-1; 5.12 µM) [%]	viability (KB3-1; 15.4 µM) [%]	viability (KB3-1; 46.1 µM) [%]
COc1ccccc1[C@H](c1cccc2ccccc12)[C@@](C)(C#N)C(=O)N1CCC(c2cccc(C(F)(F)F)c2)CC1	94.1	96.9	106	103	91.5	106	100	98.4	98.5	80.8	83.4	95.5	101	102	100	96.2	97.1	94.9	96.6	82.4	84.3	93.8	105	103	104	98.8	102	105	104	98	94.1	78.1	74.4
OC1=C(C=CC=C1)C2=CC=C(C=C2)C3=CSC4=C3C(=C(/C#N)C(=O)N4)/O																							98.5	97.7	97.3	102	99.4	101	103	108	109	104	106
CC(=O)NCCC(=O)N[C@@H](CCC(N)=O)C(=O)N[C@@H](CO)C(=O)N[C@@H](CCC(N)=O)C(=O)N[C@@H](CCC(N)=O)C(=O)N[C@H](C(=O)N[C@@H](Cc1ccccc1)C(=O)N[C@]1(C)CCCCCC/C=C\CCC[C@@](C)(C(=O)N[C@@H](CCC(N)=O)C(=O)N[C@@H](CC(N)=O)C(N)=O)NC(=O)[C@H](CC(C)C)NC(=O)[C@H](CC(C)C)NC(=O)[C@@H](CCCNC(=N)N)NC(=O)[C@H](Cc2c[nH]c3ccccc23)NC(=O)[C@H](CC(C)C)NC(=O)[C@H](CC(N)=O)NC1=O)[C@H](C)O [Ac-SAH-p53-8]	125	106	115	115	127	123	125	119	127	115	24.8	111	114	111	105	100	116	111	109	110	106	3.33	99.6	103	96.6	104	106	102	103	101	105	94.1	96.9
O=C(/C=C/c1cccnc1)NCCCCC1CCN(C(=O)c2ccccc2)CC1 [Daporinad]	121	110	112	124	114	124	123	102	96.2	108	84.2	6.69	6.69	6.8	6.79	6.73	6.6	6.76	6.48	5.94	5.1	3.48	96.2	98.6	103	99.8	103	98.7	97.7	97.8	95.1	93.3	80.5
